# Data from the supplement of paper PMC8728848.
# Some of the results follow.
# B1: PX14343B-bfa-546-20-546 (Bacteroides fragilis) (protein)
# chain: CDLERYPLTDLSEETFWNSESNAELALTSLYRGSLTDGVEYNPSDWWSYHGMIMMEHLSDNAFDRRGENNPFFKISSGNLTADNAFIKRYWETSYKRIGYCNRFLVGIQNSSESEKKTRMIAEARFLRATQYFYLASYFKNVPLVENVLTGEEANNVTKTSQADILKWCVTEFTAAAADLPRFSAIPAGEAGRACKQAALAFLGRTCMLQKDWKSGAKAFHDIMELGDNAINANYQELFYPSTGTSNKENIFYIQYLENYLGTGLPQHALSAKDGGWSLVNPAADLYESYEFKDGTPFSYDDPRYDPSNLGKDRDPRLDYTIYYNGAIFMGTEYKMSPDYSAAKKEKLDYTSEASRTGFMMRKYFEESTPINDVQSANGLTPVIRYAEVLLGYLECLVEDNQTITQGILDETINAVRGRASVNMPPVTEVTPAKLREIVRHERRIELAMEGIRYWDIMRWGIAHEVLSQKIWGAPYPGSTQYATTTKEVDPTGNYRWYVGKRAFRNPTDYTWPIPQSEQNINPNLRD
# Assays:
# Experiment in all cases: glycan array binding signal (z-score within array); higher = stronger binding
# Details in all cases: glycan notation: IUPAC condensed, linker removed
# [1] = molecular target: GlcNAc(b1-4)GlcNAc(b1-4)GlcNAc(b1-4)GlcNAc(b1-4)GlcNAc(b1-4)GlcNAc
# Procedure, shortened: (§1)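 The binding signal is a Z-score computed within each array and averaged over linkers. Arrays of the same protein sequence at different concentrations or buffers were also averaged together. Data originate from 3228 arrays in the Consortium for Functional Glycomics database, kept only where the protein sequence was available.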
# [2] = molecular target: GlcNAc(b1-4)[GlcNAc(b1-6)]GalNAc
# Procedure, shortened: as §1
# [3] = molecular target: GlcNAc(b1-6)Gal(b1-4)GlcNAc
# Procedure, shortened: as §1
# GlcNAc(b1-6)GalNAc = molecular target: GlcNAc(b1-6)GalNAc
# Procedure, shortened: as §1
# [4] = molecular target: GlcNAc6S(b1-3)Gal(b1-4)GlcNAc
# Procedure, shortened: as §1
# Kdn(a2-3)Gal(b1-3)GalNAc = molecular target: Kdn(a2-3)Gal(b1-3)GalNAc
# Procedure, shortened: as §1
# Kdn(a2-3)Gal(b1-3)GlcNAc = molecular target: Kdn(a2-3)Gal(b1-3)GlcNAc
# Procedure, shortened: as §1
# Kdn(a2-3)Gal(b1-4)Glc = molecular target: Kdn(a2-3)Gal(b1-4)Glc
# Procedure, shortened: as §1
# Kdn(a2-3)Gal(b1-4)GlcNAc = molecular target: Kdn(a2-3)Gal(b1-4)GlcNAc
# Procedure, shortened: as §1
# [5] = molecular target: Kdn(a2-3)Gal(b1-4)[Fuc(a1-3)]GlcNAc
# Procedure, shortened: as §1
# Kdn(a2-6)Gal(b1-4)GlcNAc = molecular target: Kdn(a2-6)Gal(b1-4)GlcNAc
# Procedure, shortened: as §1
# [6] = molecular target: Man(a1-2)Man(a1-2)Man(a1-3)Man
# Procedure, shortened: as §1
# [7] = molecular target: Man(a1-2)Man(a1-2)Man(a1-6)[Man(a1-3)]Man
# Procedure, shortened: as §1
# Man(a1-2)Man(a1-3)Man = molecular target: Man(a1-2)Man(a1-3)Man
# Procedure, shortened: as §1
# [8] = molecular target: Man(a1-2)Man(a1-3)[Man(a1-2)Man(a1-6)]Man
# Procedure, shortened: as §1
# [9] = molecular target: Man(a1-2)Man(a1-3)[Man(a1-2)Man(a1-6)]Man(a1-6)[Man(a1-2)Man(a1-2)Man(a1-3)]Man
# Procedure, shortened: as §1
# [10] = molecular target: Man(a1-2)Man(a1-3)[Man(a1-2)Man(a1-6)]Man(a1-6)[Man(a1-2)Man(a1-2)Man(a1-3)]Man(b1-4)GlcNAc(b1-4)GlcNAc
# Procedure, shortened: as §1
# [11] = molecular target: Man(a1-2)Man(a1-3)[Man(a1-6)]Man(a1-6)[Man(a1-2)Man(a1-3)]Man(b1-4)GlcNAc(b1-4)GlcNAc
# Procedure, shortened: as §1
# [12] = molecular target: Man(a1-2)Man(a1-6)[Man(a1-3)]Man(a1-6)[Man(a1-2)Man(a1-2)Man(a1-3)]Man
# Procedure, shortened: as §1
# [13] = molecular target: Man(a1-2)Man(a1-6)[Man(a1-3)]Man(a1-6)[Man(a1-2)Man(a1-2)Man(a1-3)]Man(b1-4)GlcNAc(b1-4)GlcNAc
# Procedure, shortened: as §1
# Man(a1-3)[Man(a1-6)]Man = molecular target: Man(a1-3)[Man(a1-6)]Man
# Procedure, shortened: as §1
# [14] = molecular target: Man(a1-3)[Man(a1-6)]Man(a1-6)[Man(a1-2)Man(a1-3)]Man(b1-4)GlcNAc(b1-4)GlcNAc
# Procedure, shortened: as §1
# [15] = molecular target: Man(a1-3)[Man(a1-6)]Man(a1-6)[Man(a1-3)]Man
# Procedure, shortened: as §1
# [16] = molecular target: Man(a1-3)[Man(a1-6)]Man(a1-6)[Man(a1-3)]Man(b1-4)GlcNAc(b1-4)GlcNAc
# Procedure, shortened: as §1
# [17] = molecular target: Man(a1-3)[Man(a1-6)]Man(b1-4)GlcNAc(b1-4)GlcNAc
# Procedure, shortened: as §1
# [18] = molecular target: Man(a1-3)[Man(a1-6)]Man(b1-4)GlcNAc(b1-4)[Fuc(a1-6)]GlcNAc
# Procedure, shortened: as §1
# Man(a1-6)Man = molecular target: Man(a1-6)Man
# Procedure, shortened: as §1
# Man(b1-4)GlcNAc = molecular target: Man(b1-4)GlcNAc
# Procedure, shortened: as §1
# MurNAc(b1-4)GlcNAc = molecular target: MurNAc(b1-4)GlcNAc
# Procedure, shortened: as §1
# Neu5Ac(a2-3)Gal = molecular target: Neu5Ac(a2-3)Gal
# Procedure, shortened: as §1
# [19] = molecular target: Neu5Ac(a2-3)Gal(b1-3)GalNAc
# Procedure, shortened: as §1
# [20] = molecular target: Neu5Ac(a2-3)Gal(b1-3)GalNAc(b1-3)Gal(a1-4)Gal(b1-4)Glc
# Procedure, shortened: as §1
# [21] = molecular target: Neu5Ac(a2-3)Gal(b1-3)GalNAc(b1-4)[Neu5Ac(a2-3)]Gal(b1-4)Glc
# Procedure, shortened: as §1
# [22] = molecular target: Neu5Ac(a2-3)Gal(b1-3)GalNAc(b1-4)[Neu5Ac(a2-8)Neu5Ac(a2-3)]Gal(b1-4)Glc
# Procedure, shortened: as §1
# [23] = molecular target: Neu5Ac(a2-3)Gal(b1-3)GalNAc6S
# Procedure, shortened: as §1
# [24] = molecular target: Neu5Ac(a2-3)Gal(b1-3)GlcNAc
# Procedure, shortened: as §1
# [25] = molecular target: Neu5Ac(a2-3)Gal(b1-3)GlcNAc(b1-2)Man
# Procedure, shortened: as §1
binder,measurement,setting,value
B1,glycan array binding signal (z-score),[1],-0.12
same,glycan array binding signal (z-score),[2],-0.115
same,glycan array binding signal (z-score),[3],-0.12
same,glycan array binding signal (z-score),GlcNAc(b1-6)GalNAc,-0.122
same,glycan array binding signal (z-score),[4],-0.123
same,glycan array binding signal (z-score),Kdn(a2-3)Gal(b1-3)GalNAc,-0.129
same,glycan array binding signal (z-score),Kdn(a2-3)Gal(b1-3)GlcNAc,-0.126
same,glycan array binding signal (z-score),Kdn(a2-3)Gal(b1-4)Glc,-0.105
same,glycan array binding signal (z-score),Kdn(a2-3)Gal(b1-4)GlcNAc,-0.123
same,glycan array binding signal (z-score),[5],-0.115
same,glycan array binding signal (z-score),Kdn(a2-6)Gal(b1-4)GlcNAc,-0.121
same,glycan array binding signal (z-score),[6],-0.113
same,glycan array binding signal (z-score),[7],-0.124
same,glycan array binding signal (z-score),Man(a1-2)Man(a1-3)Man,-0.133
same,glycan array binding signal (z-score),[8],-0.126
same,glycan array binding signal (z-score),[9],-0.099
same,glycan array binding signal (z-score),[10],-0.13
same,glycan array binding signal (z-score),[11],-0.129
same,glycan array binding signal (z-score),[12],-0.129
same,glycan array binding signal (z-score),[13],-0.126
same,glycan array binding signal (z-score),Man(a1-3)[Man(a1-6)]Man,-0.122
same,glycan array binding signal (z-score),[14],-0.129
same,glycan array binding signal (z-score),[15],-0.112
same,glycan array binding signal (z-score),[16],-0.104
same,glycan array binding signal (z-score),[17],-0.116
same,glycan array binding signal (z-score),[18],-0.124
same,glycan array binding signal (z-score),Man(a1-6)Man,-0.106
same,glycan array binding signal (z-score),Man(b1-4)GlcNAc,-0.12
same,glycan array binding signal (z-score),MurNAc(b1-4)GlcNAc,-0.122
same,glycan array binding signal (z-score),Neu5Ac(a2-3)Gal,-0.111
same,glycan array binding signal (z-score),[19],-0.132
same,glycan array binding signal (z-score),[20],-0.124
same,glycan array binding signal (z-score),[21],-0.116
same,glycan array binding signal (z-score),[22],-0.114
same,glycan array binding signal (z-score),[23],-0.125
same,glycan array binding signal (z-score),[24],-0.123
same,glycan array binding signal (z-score),[25],-0.128
